# In patent US20050020580A1, “Materials and methods for the prevention or treatment of apoptosis and apoptosis-related diseases and conditions” (priority 2002, published 2005):
# Assay: Mouse pharmacokinetic studies: plasma drug concentrations by LC/MS/MS
# Type: in vivo, mice (BALB/C)
# Experimental: Administration of PI for Experimental Protocols: Six to eight-week-old BALB/C mice (Jackson Labs, Bar Harbor, Me.) were acclimatized for one week before receiving either control vehicle or PI by gavage. PIs were prepared by dissolving 1% weight per volume carboxymethylcellulose and 15 mg/mL Nelfinavir (NFV) oral powder (commercial preparation, Agouron Laboratories, La Jolla, Calif.) in 2% ethanol in distilled water. […] The PI mixture was administered every 8 hours for the indicated number of doses and mice were either sacrificed for pharmacokinetic studies or treated as described. Histopathology was performed by a consulting veterinary pathologist who was blinded as to the nature of experimental treatments.
# Immediately preceding the fourth dose and every two hours post gavage until hour 8, plasma drug concentrations were assayed. At both doses, NFV was undetectable (i.e. <2.5 ng/mL) 6 hours after dosing.
# Drug levels were assessed in two mice each for several time-points. NFV levels were 8172 and 8914 ng/mL at 1 hour, 5999 and 6006 ng/mL at 2 hours, 5559 and 6048 ng/mL at 3 hours, and 4005 to 4217 ng/mL at 4 hours post-dosing.
# [1] = NFV 125 mg/kg and RIT 13 mg/kg every 8 hours, plasma, two mice
compound,measurement,setting,value
"Cc1c(O)cccc1C(=O)N[C@@H](CSc1ccccc1)[C@H](O)CN1C[C@H]2CCCC[C@H]2C[C@H]1C(=O)NC(C)(C)C [NFV, nelfinavir]",concentration at 1 h,"BALB/C, mouse, plasma, oral, NFV 125 mg/kg and RIT 13 mg/kg every 8 hours, plasma, two mice, read-out: NFV levels at 1 hour post-dosing",8170 ng/mL
same,concentration at 2 h,"BALB/C, mouse, plasma, oral, NFV 125 mg/kg and RIT 13 mg/kg every 8 hours, plasma, two mice, read-out: NFV levels at 2 hours post-dosing",6000 ng/mL
same,concentration at 3 h,"BALB/C, mouse, plasma, oral, NFV 125 mg/kg and RIT 13 mg/kg every 8 hours, plasma, two mice, read-out: NFV levels at 3 hours post-dosing",5560 ng/mL
same,concentration at 4 h,"BALB/C, mouse, plasma, oral, NFV 125 mg/kg and RIT 13 mg/kg every 8 hours, plasma, two mice, read-out: NFV levels at 4 hours post-dosing",4000 to 4220 ng/mL
same,concentration at 8 h,"BALB/C, mouse, plasma, oral, NFV 125 mg/kg and RIT 13 mg/kg every 8 hours, plasma, read-out: NFV trough concentrations (8 hours post-dosing)",1200 to 1260 ng/mL
same,NFV levels at 1 hour post-dosing,[1],8914 ng/mL
same,NFV levels at 2 hours post-dosing,[1],6006 ng/mL
same,NFV levels at 3 hours post-dosing,[1],6048 ng/mL
same,NFV plasma concentrations 6 hours after dosing,"NFV alone 250 mg/kg every 8 hours, BALB/C and C57BL/6 mice",undetectable
